# Source: ChEMBL document CHEMBL4888484, “Replenishing the malaria drug discovery pipeline: Screening and hit evaluation of the MMV Hit Generation Library 1 (HGL1) against asexual blood stage Plasmodium falciparum ,using a nano luciferase reporter read-out” (2022)
# Out of some 150,000 compounds screened, about 540 (0.36%) showed an effect of 50% or more. This is one part of the list.
# Tested on: Plasmodium falciparum
# Assay: Primary screen in NF54 nanoGlo assay, in single point, at 2uM, 72h; a lower Z score goes with more inhibition
# Format: functional, Erythrocyte
# Conditions: timepoint 72 hour
SMILES,% Inhibition [%],Z score
COc1cccc(C(=O)N2CCN(c3ccc(NC(=O)C4CCCC4)cn3)CC2)c1,0,-0.08
COc1ccc(Cc2noc(C3CCOC(C)C3)n2)c(Cl)c1OC (stereo not drawn),3,-0.34
CCOc1cc(CN=C(N)Nc2cccc(C)c2)ccn1,-3,0.56
C=CCCC(=O)NC[C@](C)(O)c1ccco1,-12,2.08
COc1ccc(OCc2nc(C)cc(=O)n2CC(=O)NCc2ccc3c(c2)OCO3)cc1,-14,2.04
COC(=O)[C@H](CCOc1ccc(OC)cc1)NC(=O)OC(C)(C)C,-9,1.79
C[C@@H](C(=O)NC1CCCC1)S(=O)(=O)Cc1cc(Cl)c2c(c1)OCCCO2,-10,0.92
Cn1c(CN2CC[C@H](O)C2(C)C)nc2ccc(Cl)cc21,0,-0.06
CN1CCCc2cc(C(=O)NC3CCCCCC3)sc21,2,-0.37
Cc1cc(C(=O)N[C@H]2CCO[C@@H]2c2nccn2-c2ccccc2)[nH]n1,6,-0.81
COc1ccc(CCNc2ccc(-c3nc(-c4cccc(Cl)c4)no3)nn2)cc1OC,18,-2.05
CN(C)c1ccc(NC(=O)C2CCCC2)cn1,-9,1.67
CN(Cc1cocn1)Cc1cnn2c1CN(C(=O)OC(C)(C)C)CC2,-11,2.32
CCC[C@H]1CN(C(=O)NCc2ccc(F)cc2)C[C@@H]1C(=O)O,-8,1.45
Cc1cc(NC(=O)CCOCC(F)F)cc(C)c1O,-6,0.87
Cc1cnc(C(=O)N2CCC[C@H]2c2nc(CCOCc3ccccc3)no2)cn1,-9,1.2
CCC(CC)(CO)CN(C)C(=O)[C@H](C)n1ccnc1C,-14,1.75
O=C(NC1CCN(S(=O)(=O)[C@H]2CCOC2)CC1)c1ccsc1,-6,0.65
CC(C)(C)OC(=O)N1CC2(C1)OCCCN2C(=O)[C@@H]1CCCCO1,-18,2.42
Cc1ccc(-n2ncc3c(N)c4c(nc32)C[C@H](c2ccccc2)CC4=O)cc1C,-15,1.96
Cc1nnsc1C(=O)N1CCc2nc(NC(=O)c3cnccn3)sc2C1,-3,0.41

SMILES,% Inhibition [%],Z score
CC(C)CN([C@H]1CCCc2cccnc21)S(=O)(=O)N(C)C,-3,0.52
COc1cccc(CC(C)NC(=O)N2CCC(C)C2CO)c1 (stereo not drawn),-14,1.73
CCOC(=O)CN(CC(C)C)C(=O)Cc1csc(CC)n1,-1,0.07
Cc1ccc(S(=O)(=O)NCCN(CCNS(=O)(=O)c2ccc(C)cc2)Cc2ccccc2)cc1,-3,0.44
CC[C@H](NCc1cccc(C(=O)O)n1)c1ccncc1,-5,1.05
CCN(Cc1nc2cc(Cl)ccc2c(=O)[nH]1)Cc1cccc2cccnc12,20,-2.28
Nc1nsc(N2CCN(CC(=O)N3CCN(c4ccccc4F)CC3)CC2)n1,-11,1.5
Cc1ccc(-n2nccc2NC(=O)C(=O)N[C@H](c2ccccn2)C(C)C)nn1,3,-0.32
Clc1cccc(OCc2cccc(-c3nc4ccccc4s3)c2)c1Cl,-3,0.31
COC(=O)C[C@H](C)NC(=O)c1cc(C)n(CC2CC2)c1C,-10,0.84
C=CCOc1ccc(C(=O)[C@@H]2[C@@H]3CCCN3[C@]3(C(=O)Nc4ccccc43)[C@@]23C(=O)Nc2ccccc23)cc1,-2,0.39
COc1cccc(C2CN(C(=O)C3CCCC3)CC2C(=O)NCCC(C)C)c1 (stereo not drawn),-8,0.79
Cc1cc(C)c2c(c1)N(Cn1nc(C(C)(C)C)ccc1=O)CCC2,-4,0.62
O=C(CCOCC(F)(F)C(F)(F)F)NCCNC(=O)c1c(F)cccc1F,-8,0.69
CCn1cc(C(=O)N(C)C2CCCC2c2ccccc2)cn1 (stereo not drawn),-8,0.93
COc1ccc(C(=O)NC(C)(C)C)cc1OC,-11,1.38
NC(=O)C1CCN(C(=O)c2[nH]nc(C3CC3)c2Br)CC1,-8,0.98
COc1cc2ccccc2cc1C(=O)Nc1sc2c(c1C(N)=O)CCCC2,3,-0.42
CC[C@H]1C(=O)NCCCN1Cc1cnc(OC)c(Cl)c1,-8,1.11
CN(Cc1noc(C2CCCC2)n1)C(=O)c1cnn2ccn(C)c12,-8,1.15
Cc1nc(C)c(C(=O)N2CCO[C@@H](c3ccc(Cl)cc3)C2)o1,-14,1.82

SMILES,% Inhibition [%],Z score
Cc1ccc(C(=O)N(Cc2cocn2)Cc2cocn2)n1C(F)F,-1,0.11
O=C(CCN1C(=O)c2ccccc2C1=O)N1CCCCCC1,8,-1.11
COCCCN1C(=O)c2ccc(C(=O)N3CCN([C@@H](C)c4nc5ccccc5s4)CC3)cc2C1=O,7,-0.95
O=C(OCc1ccccc1)c1cccc(NCc2nnc(C3CC3)o2)c1,0,0.03
Cc1c(Cl)cc(C(=O)N2C[C@@H]3[C@@H](CN(C)C)[C@@H]3C2)cc1Cl,-7,1.35
CCC[C@]1(CO)CCN(Cc2cc3c(C)cc(C)cc3[nH]2)C1,-1,0.17
O=C(Nc1nc(CCc2c[nH]c3ccccc23)n[nH]1)C1CCCCC1,0,0.02
Cc1c(CN2CCC(Cc3ccc(CN4CCCC4)cc3)CC2)cnn1C,-10,1.91
O=S(=O)(c1c(F)cc(F)cc1Br)N1CCc2ccccc21,29,-3.96
Cc1ccc(-c2nc(CNS(=O)(=O)c3ccc(F)cc3)no2)o1,8,-0.77
CC1(C)C(NC(=O)N2CCOCC2)C2CCCOC21 (stereo not drawn),-12,1.83
Cc1noc(-c2nc(Cc3ccccc3)no2)n1,-10,1.23
CCc1ccc(NC(=O)N2CCCCC[C@H]2c2ccc(C)s2)cc1,6,-1.16
O=C1C2N=NN(c3ccccc3Cl)C2C(=O)N1c1ccc2c(c1)CCC2 (stereo not drawn),-8,0.88
CN(C(=O)C1CCN(C2CCN(CCCc3ccccc3)CC2)CC1)[C@H]1CCOC1,-3,0.31
O=C(NCCOc1cc(N2CCOCC2)ncn1)C1CCCC1,8,-1.07
COc1ccc(-c2n[nH]c(C3CCCCC3)n2)cn1,-20,1.84
CCCn1cc(CCNS(=O)(=O)Cc2cc(C)ccc2C)c2cccnc21,-9,0.99
O=C(Nc1ccc(-c2cc(NC(=O)c3ccccc3)n(-c3ccc(Oc4ccccc4)c(S(=O)(=O)O)c3)n2)cc1)c1ccccc1,-12,2.39
O=C(NCc1nccs1)c1nn(Cc2ccccc2)c2c1CN(Cc1cccc3nccnc13)CC2,-14,1.59
O=C(Nc1ccccc1C(F)(F)F)N1CCc2c([nH]c3ccc(Cl)cc23)[C@H]1c1ccc(F)cc1,-10,1.44

SMILES,% Inhibition [%],Z score
Cc1nc(C)c(C)c(NCc2cc(CC(C)C)on2)n1,2,-0.18
CC(C)N(Cc1cnn(C)c1)C(=O)c1csc(-c2ccco2)n1,-24,2.16
CCCC(=O)NS(=O)(=O)c1c(C)nn(C)c1C,-45,5.3
CC(C)(C)NC(=O)CN1CCC(CNc2ccc(C#N)nc2)CC1,-12,1.21
Cc1cnn([C@H]2CCN(S(=O)(=O)c3cc(Cl)sc3Cl)C2)c1,0,0.01
COCc1nsc(N2CCC(c3c(F)cccc3F)CC2)n1,30,-4.27
COc1ccc(C(=O)N2CCC3(CC2)C[C@@H](c2nc(C)no2)N(C)C3)c(OC)c1,-11,1.39
CCN1CCN(c2c(CN(CC(C)C)C(=O)C3CCCCC3)c(C)nn2-c2cccc(F)c2)CC1,-11,1.56
C=C(C)CN(C)C(=O)c1cc(O)nc(C(C)C)c1,2,-0.25
CCOc1cc2c(cc1OCC)[C@H](c1ccc3ccccc3c1)NCC2,12,-1.57
CCc1c(C)noc1NC(=O)CCc1ccnn1C,-2,0.35
NC(=O)[C@@H]1C[C@@H](O)CN1C(=O)CCc1ccc(F)cc1,-11,1.87
COC1CCCC(CC(=O)NCc2nnc(C3CC3)o2)C1 (stereo not drawn),4,-0.73
Cc1cc(NC(=O)CNC2C(C)CCN(C(=O)OC(C)(C)C)C2C)n(C(C)(C)C)n1 (stereo not drawn),33,-4.84
Cc1cccc(CN(Cc2ccc3cn[nH]c3c2)Cc2ccccn2)c1,-28,3.28
CCN1CCN(c2nc(C)c(C#N)cc2Cl)CC1=O,-10,1.56
CCCCC(N)C(=O)N1CCC2OCCCC2C1 (stereo not drawn),-9,1.01
COc1ccc(OC)c(CNc2cc[nH]n2)c1,-5,0.8
CCN(C(=O)[C@H]1CCCN(S(=O)(=O)c2ccc3c(c2)NC(=O)CO3)C1)c1ccccc1,4,-0.69
CC(C)(F)c1cc(NS(=O)(=O)c2cncc(F)c2)no1,-18,3.02
CCc1cc(Br)cc2c1N(C(=O)c1ncn(C)n1)CCC2,2,-0.44
